In article PMC12040169 (PLOS Biology, 2025):
This is one part of the list.

The molecules below were run on T1, C. trachomatis L2/434/Bu expressing GFP (CTL2-GFP). Settings: total inclusion area; 28.5 h, 10 µM; inhibitor.
T1 construct: L2/434/Bu GFP intracellular growth in HeLa cells
Parameters: species or system HeLa; C. trachomatis total inclusion area by high-content imaging, normalised to DMSO
In short: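 High-content imaging followed the bulk GFP/resorufin measurement: fixed, Hoechst-stained cells were scored for GFP inclusions and host nuclei per well. Total inclusion area and count served as growth proxies, nuclei number as the viability proxy. MIC calculation matched the bulk assay.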

In order of falling “% of control remaining” value:
1. CCOc1cc(CNC2C3CC4CC(C3)CC2C4)cc(Cl)c1OCC(N)=O (centres unmarked) [CBK265734C]  143.246
2. N#CCCSc1ccn(C2CC(O)C(CO)O2)c(=O)n1 (centres unmarked) [CBK201261]  140.989
3. Cc1cn([C@H]2C[C@@H](O)[C@@H](CI)O2)c(=O)[nH]c1=O [CBK201197]  128.858
4. CC(=O)N(C)c1nc(-c2ccccc2C)ccc1C(=O)Nc1cc(C)nn1C [CBK106357]  121.726
5. O=C(O)c1cccc2c1C(=O)N(Cc1ccccc1F)C2 [CBK291172]  118.674
6. COc1ccc(C(=O)OC(C)(C)C)c(-c2cncc(N3CCCCC3CCO)n2)c1 (centres unmarked) [CBK037786]  118.669
7. O=C1Cc2c(ccc3ccccc23)C2(CCN(CCCC(F)(F)F)CC2)N1 [CBK039912]  112.687
8. Cc1noc(C)c1CC(=O)N(C)CCN1CCCCC1 [CBK281855]  112.651
9. O=C1NC(Nc2ccc(SCCN3CCOCC3)cc2)c2ccccc21 (centres unmarked) [CBK010123]  112.142
10. CCn1cc(-c2cncn2CCOc2ccc(C)cc2)cn1 [CBK281623]  111.182
11. COc1ccccc1-c1ncc(OCCN2CCOCC2)nc1N [CBK145072]  110.182
12. COCC(=O)NCc1cc2n(n1)CCN(Cc1cccs1)C2 [CBK307085]  108.886
13. Cc1nnc(CSc2ncc(-c3ccc(Cl)cc3)n2Cc2ccccc2)o1 [CBK297154]  108.149
14. CCNC(=O)N1CC2(CCN(CCCC#N)CC2)c2ccccc21 [CBK136970]  107.521
15. COc1ccc(C)cc1S(=O)(=O)N(C)CC(=O)Nc1cccc(C(C)=O)c1 [CBK268753]  107.442
16. Cc1cc(COc2cc(N3CCCN(Cc4ccc5c(c4)OCO5)CC3)ncn2)no1 [CBK083335T]  105.736
17. CC(=O)c1cccc(-c2cnc(Nc3ccc(N4CCOCC4)cc3)c3nccn23)c1 [CBK091217]  104.896
18. O=C(CSc1nnc(COc2ccccc2)o1)c1cccc([N+](=O)[O-])c1 [CBK267868]  103.387
19. O=C(Nc1ccc(Cl)cc1)N1CCN(c2ccccc2)CC1 [CBK155188]  103.088
20. CCOC(=O)CCCNC(=O)N1CCN(Cc2ccccc2)CC1 [CBK155664]  102.936
21. CC1CCc2c(sc3ncnc(OCC(=O)N4CCNC4=O)c23)C1 (centres unmarked) [CBK305775]  102.889
22. Cc1noc(C)c1S(=O)(=O)Nc1cc(C(F)(F)F)ccc1N1CCOCC1 [CBK062545]  102.229
23. COc1cccc(-c2ccc(NS(=O)(=O)c3ccc4c(c3)CCC(=O)N4)cc2)c1 [CBK286373]  100.719
24. O=C(NC(=S)Nc1ccc2[nH]c(=O)[nH]c2c1)c1ccc(OCc2ccccc2)cc1 [CBK268908]  100.031
25. O=C(NCc1cccnc1)N1CCN(CCc2ccccc2)CC1 [CBK158906]  98.5163
26. COc1cc(CNn2c(C)nnc2S)cc(Br)c1OCC(=O)NC(C)(C)C [CBK266575]  98.4559
27. Cc1nn(CC(=O)NC2CCCCC2)c(=O)c2cc3ccsc3n12 [CBK284080]  96.5841
28. CCc1nc2ccc(C(=O)N(C)CCN(C)C)cn2c1N(C)C(=O)Cc1ccccc1 [CBK146858]  96.2233
29. C=CCNc1nccnc1-c1cnc(OC)nc1OC [CBK036922]  95.9656
30. Cc1ccccc1-c1nc2ccc(NC(=O)CCC(=O)O)cc2o1 [CBK269904]  95.9059
31. COc1ccc(-c2nnc(SCC(=O)c3ccc(F)cc3)n2C2CCCCC2C)cc1 (centres unmarked) [CBK297494]  95.1138
32. CN1CCN(C(=O)C2CCCN(S(=O)(=O)c3ccc(Br)cc3)C2)CC1 (centres unmarked) [CBK269006]  94.7419
33. c1cncc(CNCc2ccoc2)c1 [CBK001744C]  94.6081
34. Cc1cc(C2CCCCCN2S(=O)(=O)c2ccc3[nH]c(=O)[nH]c(=O)c3c2)on1 (centres unmarked) [CBK286405]  94.4219
35. NC(=O)C1CCN(Cc2cc3c(cc2[N+](=O)[O-])OCO3)CC1 [CBK261885]  92.4412
36. Cc1nc(N2CCCC2)ncc1-c1cc(=O)[nH]c(N2CCCCC2)n1 [CBK288226]  91.6341
37. CO[C@H]1CC[C@H](C(=O)NC(c2ccccc2)c2nccn2C)CC1 (some centres unmarked) [CBK283852]  90.603
38. O=[N+]([O-])c1ccc(N2CCN(CCO)CC2)cc1NCc1ccc(Cl)cc1 [CBK042201]  90.2578
39. CC(Oc1ccc(Cl)cc1Cl)C(=O)Nc1ccc(N2CCN(C)CC2)c(Cl)c1 (centres unmarked) [CBK268563]  89.9845
40. O=C(COc1ccc2ccccc2c1)Nc1ccc(N2CCN(Cc3ccccc3)CC2)cc1 [CBK266104]  89.6563
41. COc1ccc(NC(=O)C(=O)NCc2ccncc2)cc1 [CBK287723]  89.1736
42. COc1cccc2cc(C(=O)NCCCN3CCN(C)CC3)oc12 [CBK149788]  89.1088
43. CN(C)C(=O)Cc1ccc(Cn2ccnc(N3CCC(Sc4ccccc4)CC3)c2=O)cc1 [CBK153652]  88.712
44. Cc1nnc(Sc2cc(C(F)(F)F)ccn2)s1 [CBK115215]  88.4589
45. Cc1nn(CC(C)C)c(C)c1CCC(=O)N(C)Cc1c(C)nn(-c2ccccc2)c1C [CBK295301]  88.4192
46. CCNC(=O)O[C@@H]1CO[C@H]2[C@@H]1OC[C@@H]2NC(=O)c1ccc(C)cc1 [CBK289472]  88.1819
47. CCOCCn1cnc2sc(C(=O)Nc3cccc(Cl)c3)c(C)c2c1=O [CBK071854]  88.0189
48. Cc1ccc(C(=O)NC(CC(C)C)c2nnc3n2CCNCC3)c(F)c1 (centres unmarked) [CBK306817]  87.9114
49. Cc1ccc(OCC(=O)Nc2ccc3c(c2)nc2n3CCOC2)cc1 [CBK288005]  87.5986
50. CCN(CC)CCN(C(=O)Nc1ccc(C(N)=O)cc1)C(C)c1ccc(OC)c(OC)c1 (centres unmarked) [CBK158962]  85.5692
51. COc1ccc(C(=O)Nc2ccccc2O)cc1S(=O)(=O)N1CCCCC1 [CBK269665]  85.1346
52. COc1ccc(C(C)C)cc1-c1cncc(N[C@@H](C)c2ccccc2)n1 [CBK065504]  84.9252
53. COCC(C)NCc1cc(-c2ccc(Cl)cc2)c[nH]c1=O (centres unmarked) [CBK284726]  84.2335
54. O=C(O)Cn1nnc(-c2ccncc2)n1 [CBK269884]  82.9836
55. CN(C)[C@@H]1CN(Cc2cccnc2)C[C@H]1c1cn(C)c2ccccc12 [CBK284875]  80.763
56. Fc1ccc(CCN2CCC(Oc3cncc(OCC4COc5ccccc5O4)n3)C2)cc1 (centres unmarked) [CBK084383]  80.6663
57. Cc1n[nH]c(C)c1Sc1ccccc1/N=C/c1ccc(C(=O)O)cc1 [CBK262055]  79.2755
58. N#Cc1ccc(CN2CCCN(S(=O)(=O)c3ccc(C(=O)c4ccccc4)cc3)CC2)cc1 [CBK062962]  78.275
59. CC(C)(C)c1ccc(S(=O)(=O)N2CCCCC2CCO)cc1[N+](=O)[O-] (centres unmarked) [CBK200067]  75.7424
60. CCOC(=O)C1(C2CCCCC2)CCN(C(=O)CN2C(=O)CSC2=O)CC1 [CBK160993]  74.9836
61. O=S(=O)(NCc1ccccn1)c1ccc(Br)cc1Br [CBK262291]  70.1993
62. CN(C)CCN(Cc1ccccn1)c1ncccn1 [CBK020142]  68.269
63. COc1cc(-c2cc(C(=O)O)c3c(-c4ccc(C)cc4)n[nH]c3n2)ccc1O [CBK287268]  68.0414
64. c1cncc(OCCOc2nsnc2N2CCNCC2)c1 [CBK001825G]  67.2242
65. O=C(Nc1cccc2ncccc12)c1cccc(Oc2ccccc2)c1 [CBK296716]  66.1939
66. COc1ccc(CCNC(=O)N2CCC(C(=O)O)CC2)cc1OC [CBK161404]  63.6132
67. O=[N+]([O-])c1cccc(-c2ccc(OC3CCNCC3)cc2)c1 [CBK126465T]  60.3403
68. CC(C)C(=O)NC1CCN(C(=O)CCn2ccc3ccncc32)CC1 [CBK284730]  59.9557
69. O=C(Cn1nnc(-c2ccccc2Cl)n1)N/N=C/c1cn(Cc2ccc(Cl)cc2)c2ccccc12 [CBK262333]  58.7862
70. CN(C(=O)CN1CSCC1=O)c1nc2c(s1)CC(c1ccccc1)CC2 (centres unmarked) [CBK305526]  57.8739
71. Cc1nc2c(c(CCC(=O)O)n1)CCCC2 [CBK023157]  57.5364
72. CC(C)(C)C(=O)NCCn1nc(-c2cccs2)oc1=O [CBK282344]  57.3632
73. COc1ccc(-c2nc3c(c(=S)[nH]2)CCCC3)cc1 [CBK020440]  56.5733
74. Cc1oc(C2CC2)cc1C(=O)N1CCn2c(nnc2C2CC2)C1 [CBK283687]  50.162
75. COc1ccc(-n2ncc3c(N4CCN(C)CC4)ncnc32)cc1 [CBK265848]  47.5633
76. CCS(=O)(=O)NC1CCN(c2nc(C(F)(F)F)nc3ccsc23)CC1 [CBK304593]  47.2681
77. CN1CCCc2c1nc1ccc(Br)cc1c2N [CBK009692G]  46.512
78. COC(=O)C(N)c1c[nH]c2ccccc12 (centres unmarked) [CBK089840]  46.4377
79. Cn1nnnc1-c1cccc(NC(=O)c2ccc(Oc3ccccc3)cc2)c1 [CBK297872]  37.9672
80. CC(C)(C)OC(=O)N1CCCCC1(C)c1nnc(-c2cccnc2)o1 (centres unmarked) [CBK304714]  31.9474
